PMC3001443
These are yes or no findings as the source states them, for the method shown. For part of these data: In cells and extracts the contact can be indirect. Some binding calls cover weakened binding; strength is not graded here. Tags and fused reporters may be left off the sequences shown.

Sequences of proteins named here, by UniProt entry; tags and fusion partners are left off. A change or cut given only in a name is not applied to a line headed by its entry.
UniProt O45495: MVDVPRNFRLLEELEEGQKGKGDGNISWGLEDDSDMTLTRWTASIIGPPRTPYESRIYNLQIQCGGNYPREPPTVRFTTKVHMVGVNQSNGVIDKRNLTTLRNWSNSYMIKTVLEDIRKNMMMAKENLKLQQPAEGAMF

How the values were obtained:
GST::UBC-13 (C. elegans) = biological target: T1, GST::UBC-13 (C. elegans) (UniProt Q95XX0); experiment: pull-down; GST::UBC-13 (12 micrograms) bound to glutathione agarose beads; 400 microliters of solubilized COS7 lysate in TEEN (20 mM Tris, 1 mM EDTA, 1 mM EGTA, 100 mM NaCl) with 1% Triton X-100; 45-60 minutes at 4°C; washed in TEEN plus 0.2% Triton X-100; Western blot with anti-GFP antibodies; only the target purified
T1 sequence: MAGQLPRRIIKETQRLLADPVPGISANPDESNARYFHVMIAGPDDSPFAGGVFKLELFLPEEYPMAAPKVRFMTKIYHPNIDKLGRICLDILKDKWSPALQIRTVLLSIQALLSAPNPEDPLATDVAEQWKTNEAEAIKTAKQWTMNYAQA

[1] = biological target: T2, UBC-13 (yeast two-hybrid fusion) (C. elegans) (UniProt Q95XX0); experiment: two-hybrid; pEG202 bait vector and pJG4-5 prey vector with reporter plasmid pSH18-34 in yeast strain EGY48; growth of serial dilutions on -Leu -His -Trp dropout plates; both orientations tested
T2 sequence: T1 sequence

[2] = biological target: UEV-1 (yeast two-hybrid fusion) (C. elegans) (UniProt O45495); experiment: as above
[3] = biological target: UEV-1 with the F8A mutation (yeast two-hybrid fusion) (C. elegans) (UniProt O45495); experiment: as above

In the case of GFP::UEV-1 (from UniProt O45495 1-139), the binding (GST::UBC-13 (C. elegans)) is reported as “binds”.

With “UEV-1 with the F8A mutation (yeast two-hybrid fusion) (from UniProt O45495 1-139)” the binding [1] was “no binding”.

With “UEV-1 (yeast two-hybrid fusion) (from UniProt O45495 1-139)” the binding [1] was “binds”.

For “GFP::UEV-1(F8A) (from UniProt O45495 1-139)”, the binding (GST::UBC-13 (C. elegans)) was “no binding”.

B1: UBC-13 (yeast two-hybrid fusion) (enzyme, UniProt Q95XX0 1-151)
chain: T1 sequence
With B1 the binding [2] was “binds” and the binding [3] was “no binding”.
